The values that follow come from publication PMC7819943, “Rice protein-binding microarrays: a tool to detect cis-acting elements near promoter regions in rice”.

Some of the results follow.

This assay deals with T1, OsWOX13 (Oryza sativa, UniProt Q5QMM3 1-267).
T1 sequence: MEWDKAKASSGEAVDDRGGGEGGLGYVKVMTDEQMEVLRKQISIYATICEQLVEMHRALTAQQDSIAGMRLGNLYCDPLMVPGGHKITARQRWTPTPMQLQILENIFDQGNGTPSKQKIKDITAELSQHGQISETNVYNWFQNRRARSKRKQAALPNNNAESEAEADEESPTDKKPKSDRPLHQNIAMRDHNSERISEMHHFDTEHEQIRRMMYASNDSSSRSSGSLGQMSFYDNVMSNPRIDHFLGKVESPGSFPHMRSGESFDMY
The experiment in a line: protein-binding microarray (RPBM); PBS, 2% BSA, 51.3 ng/ul salmon testes DNA, 50 uM zinc acetate, 200 nM TF, 25 C, 1 h; high values mean tight binding. As to conditions: protein: recombinant; tags: N-terminal polyhistidine and DsRed monomer fusion (pET32a); label: CyDye5-dUTP incorporated in the synthesized complementary strand; 3' TTTTT single-stranded linker to array surface; dsDNA, one strand shown. In short, it runs like this:
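The binding signal is fluorescence intensity per feature, in arbitrary units, read on an Axon 4000B scanner. Polyhistidine- and DsRed-tagged transcription factors (N-terminal fusions) from E. coli BL21-CodonPlus were purified on Ni–NTA and applied at 200 nM for 1 h at 25 °C to a double-stranded, BSA-blocked custom Agilent array in buffer with 50 µM zinc acetate.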
Take “CATAATTCATTGCCAATCCATTGCCACAAAATGAACATAGCGGAGTCACCTAGTGCAG”: the binding signal is 8610 fluorescence intensity (a.u.). Turning to “CTTTGATTTGATGCTTGTTTCGTGGCAGCTTACCACTGGACGGAGTCACCTAGTGCAG”, the binding signal was 40900 fluorescence intensity (a.u.). Take “AGATCCAATCATCATGGACGGTCATCCCAATTGAAGCAGACGGAGTCACCTAGTGCAG”: the binding signal is 6250 fluorescence intensity (a.u.). Consider “AAGAAAATTGATAAAGAGAGAGGAGGAAGGGAGAGGAGGGCGGAGTCACCTAGTGCAG”, for which the binding signal was 12200 fluorescence intensity (a.u.). For “TACCACACTTGCACTGATTAGTATTATCGGGTTTAACATACGGAGTCACCTAGTGCAG”, the binding signal was 6410 fluorescence intensity (a.u.).

On to “ATTAAAATTCACTTAATATCAATCATATGTAAGATTAATTCGGAGTCACCTAGTGCAG”, for which the binding signal is 19600 fluorescence intensity (a.u.). Then “AAATAAATTTCATTTGGCAGCATACATTTCAATTTTCGTTCGGAGTCACCTAGTGCAG”, with 6300 fluorescence intensity (a.u.); and “ACTATAATTAAGTATGTGCAGCTGAAACTGTTAGGAGTTTCGGAGTCACCTAGTGCAG”, with 9250 fluorescence intensity (a.u.); and “TCTTAATTACACCACTGGTGTGAGAGAAATTAATTTGCTTCGGAGTCACCTAGTGCAG”, with 16200 fluorescence intensity (a.u.). With “GATAATTACTCTTACGTCCCTCACCCTATGTTCCTGTGTTCGGAGTCACCTAGTGCAG”, the binding signal is 27100 fluorescence intensity (a.u.). With “CGCCGCCTCAAACTTTGATTGGAAATCGAAACGGGAAGAACGGAGTCACCTAGTGCAG”, the binding signal is 11000 fluorescence intensity (a.u.).

On to “TCCTAATTTTGTAAACTTGTAGGGACTAAAATAAATTAAGCGGAGTCACCTAGTGCAG”, for which the binding signal was 5570 fluorescence intensity (a.u.). With “TAATATAATTGTTGACTAGAAATAGTCATATGGCATATTACGGAGTCACCTAGTGCAG”, the binding signal was 8940 fluorescence intensity (a.u.). “AGGTGGATTATGGAGTGATGAGTGCGGCATTGAGGGGATTCGGAGTCACCTAGTGCAG”: the binding signal is 4040 fluorescence intensity (a.u.).

Regarding “AAGCCTCCTGATTAGTCCAATAGATGCCTTATATATGATCCGGAGTCACCTAGTGCAG”, the binding signal was 4940 fluorescence intensity (a.u.). With “AAAACAAAGATATAATTAACATGTTTCAAATTTGCACAGACGGAGTCACCTAGTGCAG”, the binding signal was 8980 fluorescence intensity (a.u.).

For “TAATAAATTTGACTACGAATAGAACGTGTAATTCACAGTCCGGAGTCACCTAGTGCAG”, the binding signal was 4730 fluorescence intensity (a.u.). On to “TAAGATTATGATTGGAAATATCACACGATGCTATGATAAGCGGAGTCACCTAGTGCAG”, for which the binding signal is 33800 fluorescence intensity (a.u.). Turning to “CGTCAGATTGGGGAAGCGGGAAAGGGGAAACGATGATCCGCGGAGTCACCTAGTGCAG”, the binding signal was 6190 fluorescence intensity (a.u.). Consider “CAAGACCTAAATGACCGTGATAGGATCCGGAAATTTAACGCGGAGTCACCTAGTGCAG”, for which the binding signal is 5620 fluorescence intensity (a.u.). With “ATTTTGCATAGATTTAGATTGACTTGCAAACTCTAGTAAGCGGAGTCACCTAGTGCAG”, the binding signal is 21400 fluorescence intensity (a.u.). Consider “ACTATTAAACTTTAACTTTAATTATGTTTGATCAAGTTTACGGAGTCACCTAGTGCAG”, for which the binding signal was 9030 fluorescence intensity (a.u.). Consider “CGACGGCTGCTAATCAACTCTTGAATTCACATCCAACGGACGGAGTCACCTAGTGCAG”, for which the binding signal was 3140 fluorescence intensity (a.u.). As to “GGAAAAGATTGAATCACTCTTGTTATATCGCTTGATTTACCGGAGTCACCTAGTGCAG”, the binding signal is 22700 fluorescence intensity (a.u.). Then “ACTTATATGTAATTACATTGTAACTTGCATGTAACTACAGCGGAGTCACCTAGTGCAG”, with 12200 fluorescence intensity (a.u.); and “ACCGATAATTTCTATAGGATAATTCGTTCTTGTAGTCTATCGGAGTCACCTAGTGCAG”, with 12400 fluorescence intensity (a.u.).

Regarding “GTGTGTTTATATTGATTATTTTACTTTATATAGTGTTAGGCGGAGTCACCTAGTGCAG”, the binding signal was 12900 fluorescence intensity (a.u.). With “TTCATAGATGAAGGTAATTGATTGATACGGGCTAATATCACGGAGTCACCTAGTGCAG”, the binding signal was 44900 fluorescence intensity (a.u.). Then “GCTTTTACTTAAACTGATTGGTGCTGATGGGTATGTTTGTCGGAGTCACCTAGTGCAG”, with 24900 fluorescence intensity (a.u.); and “TTTATGTATCCATCTTTATGCCCTTCTCAAATCTCCCAATCGGAGTCACCTAGTGCAG”, with 6310 fluorescence intensity (a.u.); and “AACCATTAATTTGATATCTATATCATATCATATTCATATTCGGAGTCACCTAGTGCAG”, with 10600 fluorescence intensity (a.u.).

As to “TCAATCAATTAATTAATTAATCGAATTGTGTTATATCTCTCGGAGTCACCTAGTGCAG”, the binding signal is 51000 fluorescence intensity (a.u.). For the sequence “AGTTTGATTTTAAGCTTGTTCAAAACCTTGTCCAAAACGTCGGAGTCACCTAGTGCAG”, the binding signal is 4340 fluorescence intensity (a.u.).

For the sequence “ACGATATATTTTACTAATTAAAATGTACCGTGACTAAGCACGGAGTCACCTAGTGCAG”, the binding signal is 4750 fluorescence intensity (a.u.). Consider “AAGCTGTAAGTAAATTGCTTGTAATTGCCATTGCAACATCCGGAGTCACCTAGTGCAG”, for which the binding signal was 6110 fluorescence intensity (a.u.). As for “TAGATTGATAGGTGGAAAGATTCAATTAAATCAAATTCAACGGAGTCACCTAGTGCAG”, the figure is 29300 fluorescence intensity (a.u.). Take “CAACTTTAATTACAAGAAAATAGTAAAACATCACATGACACGGAGTCACCTAGTGCAG”: the binding signal was 5640 fluorescence intensity (a.u.). On to “TAAGATAAATGATTAAATGTTATGTGAAAGTCAATGACGTCGGAGTCACCTAGTGCAG”, for which the binding signal is 18200 fluorescence intensity (a.u.). As for “ATTCAAAATTTAAATTGTTCAAATTAACTTACTTGGATAACGGAGTCACCTAGTGCAG”, the figure is 15500 fluorescence intensity (a.u.); as for “TAGTCTATGTATTTGGCTGATTGCCGGCGCTTTGATTAGCCGGAGTCACCTAGTGCAG”, 6060 fluorescence intensity (a.u.).

With “TCAGTCGGCAATTGATTAAGCAGCTAGCTCAAGCTGGTAACGGAGTCACCTAGTGCAG”, the binding signal was 4300 fluorescence intensity (a.u.).

For the sequence “TACATGATACTATATCAATTATCAAATCGAACTTGTCAATCGGAGTCACCTAGTGCAG”, the binding signal is 3600 fluorescence intensity (a.u.).
